Publication PMC10394085
No constants are given. Whether binding was seen depends on the method and setting. For some of these results: Binding seen in cells or lysates may run through a third protein. Some entries that bind do so weakly or less than the wild type.

By UniProt entry, the sequences of proteins in these tests, tags left out. Where a name states a change or a piece, a line headed by the entry shows the natural chain unless it says otherwise. Chains listed by the source or under a name are the forms on record and can include a tag or linker.
UniProt P35569: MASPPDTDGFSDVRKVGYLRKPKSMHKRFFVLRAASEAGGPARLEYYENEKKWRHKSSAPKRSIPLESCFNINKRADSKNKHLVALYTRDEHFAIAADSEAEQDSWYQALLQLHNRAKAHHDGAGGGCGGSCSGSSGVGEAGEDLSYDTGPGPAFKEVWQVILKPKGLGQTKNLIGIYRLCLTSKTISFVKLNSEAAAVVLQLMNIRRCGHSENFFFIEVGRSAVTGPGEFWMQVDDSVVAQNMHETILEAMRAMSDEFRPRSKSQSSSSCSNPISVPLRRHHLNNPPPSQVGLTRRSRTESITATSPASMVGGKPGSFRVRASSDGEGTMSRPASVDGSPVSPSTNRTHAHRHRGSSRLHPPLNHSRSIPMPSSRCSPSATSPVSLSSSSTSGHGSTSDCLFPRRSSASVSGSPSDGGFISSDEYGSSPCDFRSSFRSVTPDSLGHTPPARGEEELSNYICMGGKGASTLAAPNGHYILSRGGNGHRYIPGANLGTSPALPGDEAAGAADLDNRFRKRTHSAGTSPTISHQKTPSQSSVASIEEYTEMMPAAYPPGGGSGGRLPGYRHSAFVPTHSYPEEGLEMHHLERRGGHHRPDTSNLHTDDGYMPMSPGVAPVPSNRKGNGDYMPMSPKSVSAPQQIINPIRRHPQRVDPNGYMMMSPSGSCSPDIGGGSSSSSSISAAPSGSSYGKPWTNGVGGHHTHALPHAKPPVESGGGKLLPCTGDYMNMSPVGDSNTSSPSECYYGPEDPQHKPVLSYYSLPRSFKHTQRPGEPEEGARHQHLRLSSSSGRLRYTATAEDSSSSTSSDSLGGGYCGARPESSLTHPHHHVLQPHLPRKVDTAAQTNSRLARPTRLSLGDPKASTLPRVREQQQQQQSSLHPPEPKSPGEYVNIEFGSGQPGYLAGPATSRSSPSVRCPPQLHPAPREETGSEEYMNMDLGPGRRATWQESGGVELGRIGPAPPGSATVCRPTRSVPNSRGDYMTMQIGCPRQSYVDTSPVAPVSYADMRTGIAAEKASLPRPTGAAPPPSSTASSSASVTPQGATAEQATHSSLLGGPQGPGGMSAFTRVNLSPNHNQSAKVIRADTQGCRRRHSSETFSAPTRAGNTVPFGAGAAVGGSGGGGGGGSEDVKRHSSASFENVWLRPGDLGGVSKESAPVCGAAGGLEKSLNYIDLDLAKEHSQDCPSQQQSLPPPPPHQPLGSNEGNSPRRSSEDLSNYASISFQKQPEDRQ
FLAG-tagged IRS-1 2YA mutant (P35569, form named): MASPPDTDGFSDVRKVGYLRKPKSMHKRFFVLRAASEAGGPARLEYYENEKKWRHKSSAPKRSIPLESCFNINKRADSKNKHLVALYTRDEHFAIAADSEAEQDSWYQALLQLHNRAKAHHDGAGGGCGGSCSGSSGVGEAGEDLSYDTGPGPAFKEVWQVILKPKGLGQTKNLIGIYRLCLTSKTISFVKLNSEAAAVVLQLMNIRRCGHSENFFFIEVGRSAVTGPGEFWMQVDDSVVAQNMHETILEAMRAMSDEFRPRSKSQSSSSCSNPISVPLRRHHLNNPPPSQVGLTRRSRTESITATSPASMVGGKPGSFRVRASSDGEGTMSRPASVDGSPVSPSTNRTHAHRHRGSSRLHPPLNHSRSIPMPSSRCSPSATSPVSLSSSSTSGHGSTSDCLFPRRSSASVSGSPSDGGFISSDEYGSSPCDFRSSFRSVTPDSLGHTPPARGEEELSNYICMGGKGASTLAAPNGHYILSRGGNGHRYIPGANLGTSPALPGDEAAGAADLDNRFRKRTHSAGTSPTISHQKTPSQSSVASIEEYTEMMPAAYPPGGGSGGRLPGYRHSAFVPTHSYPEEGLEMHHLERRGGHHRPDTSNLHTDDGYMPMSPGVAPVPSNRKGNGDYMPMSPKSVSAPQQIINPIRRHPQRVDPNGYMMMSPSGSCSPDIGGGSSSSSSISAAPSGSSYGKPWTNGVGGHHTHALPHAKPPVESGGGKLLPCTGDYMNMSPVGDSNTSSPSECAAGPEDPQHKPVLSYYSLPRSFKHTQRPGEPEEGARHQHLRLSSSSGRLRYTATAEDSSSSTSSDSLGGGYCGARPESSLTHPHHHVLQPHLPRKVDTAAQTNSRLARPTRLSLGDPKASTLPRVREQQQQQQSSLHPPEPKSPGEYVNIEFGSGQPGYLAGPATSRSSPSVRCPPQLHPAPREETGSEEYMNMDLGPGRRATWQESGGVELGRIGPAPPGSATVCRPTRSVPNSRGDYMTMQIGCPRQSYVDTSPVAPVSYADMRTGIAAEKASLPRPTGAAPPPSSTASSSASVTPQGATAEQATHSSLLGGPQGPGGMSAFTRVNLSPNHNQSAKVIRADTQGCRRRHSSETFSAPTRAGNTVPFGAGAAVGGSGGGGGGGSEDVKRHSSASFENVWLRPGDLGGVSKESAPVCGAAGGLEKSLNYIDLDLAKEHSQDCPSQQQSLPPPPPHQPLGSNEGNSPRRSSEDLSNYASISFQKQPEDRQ
UniProt Q9QY76: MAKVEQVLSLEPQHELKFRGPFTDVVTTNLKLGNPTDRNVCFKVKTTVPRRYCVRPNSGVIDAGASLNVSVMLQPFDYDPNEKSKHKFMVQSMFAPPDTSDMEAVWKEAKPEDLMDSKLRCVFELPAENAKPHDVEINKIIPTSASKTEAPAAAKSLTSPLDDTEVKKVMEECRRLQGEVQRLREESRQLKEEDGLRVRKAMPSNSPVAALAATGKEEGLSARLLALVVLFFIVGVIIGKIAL
HA-VAPB KMDD mutant (Q9QY76, form named): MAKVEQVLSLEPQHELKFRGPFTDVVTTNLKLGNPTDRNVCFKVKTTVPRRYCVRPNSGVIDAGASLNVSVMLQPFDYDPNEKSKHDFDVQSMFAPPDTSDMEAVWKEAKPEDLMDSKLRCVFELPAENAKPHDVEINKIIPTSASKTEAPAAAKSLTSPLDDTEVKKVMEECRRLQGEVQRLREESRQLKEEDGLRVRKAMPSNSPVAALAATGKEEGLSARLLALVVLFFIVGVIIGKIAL

What was measured:
[1] = molecular target: FLAG-tagged IRS-1 (mouse) (UniProt P35569); experiment: co-IP; tagged constructs co-transfected into 293T cells; lysates immunoprecipitated with anti-FLAG M2 beads; Western blot; lysis buffer 150 mM NaCl, 50 mM Tris pH 7.3, 1% sodium deoxycholate, 1% Triton X-100
[2] = molecular target: FLAG-tagged IRS-1 2YA mutant (mouse) (UniProt P35569); experiment: as above
[3] = molecular target: FLAG-tagged IRS-1 F766A mutant (mouse) (UniProt P35569); experiment: as above
[4] = molecular target: Endogenous VAPB (mouse (endogenous in C2C12)) (UniProt Q9QY76); experiment: co-IP; endogenous proteins in C2C12 myoblast lysate; endogenous VAPB immunoprecipitated (the legend of Fig. 2b says IRS-1 antibodies), protein A/G agarose, Western blot; cells with or without 100 ng/mL IGF-1 for 2.5 min after serum starvation (enhanced), Tg or Tu for 3 h (impaired), expression of VAPB P56S (reduced)
GST-VAPB fusion protein = GST-VAPB fusion protein (UniProt Q9QY76); experiment: pull-down; GST or GST-VAPB on beads incubated with FLAG-IRS-1 eluted by FLAG peptide from anti-FLAG gel; 4 °C, 2–3 h; 200 mM NaCl, 50 mM Tris pH 7.3, 0.25 mM EDTA, 1% sodium deoxycholate, 1% Triton X-100; Western blot with anti-FLAG; both purified
FLAG-tagged VAPB = FLAG-tagged VAPB (UniProt Q9QY76); experiment: co-IP; tagged constructs co-transfected into 293T cells; lysates immunoprecipitated with anti-FLAG M2 beads; Western blot; lysis buffer 150 mM NaCl, 50 mM Tris pH 7.3, 1% sodium deoxycholate, 1% Triton X-100

HA-VAPB (from UniProt Q9QY76 1-243) was tested, and the binding [1] was “binds”, the binding [2] was “no binding” and the binding [3] was “binds”.

With “Endogenous IRS-1 (from UniProt P35569 1-1233)” the binding [4] was “binds”.

In the case of “FLAG-tagged IRS-1 (from UniProt P35569 1-1233)”, the binding (GST-VAPB fusion protein) is reported as “binds”.

“HA-VAPB KMDD mutant (from UniProt Q9QY76 1-243)” was tested, and the binding [1] was “no binding”.

In the case of GFP-IRS-1 (from UniProt P35569 1-1233), the binding (FLAG-tagged VAPB) is reported as “binds”.
